Measured values: the supplement of paper PMC4967469
The IC50 comes from the fitted curve, where viability falls to half of the control; where the fit passes the top or lowest dose, that dose stands as a limit. For AUC the same curve is integrated over the 256-fold range of doses and scaled to a fraction: 1 means no effect, lower means more sensitive.

These cell lines were tested with NC1(c2ccc(-c3nc4ccn5c(=O)[nH]nc5c4cc3-c3ccccc3)cc2)CCC1 [MK-2206] (assay: Viability of human cancer cell lines after 72 h of drug (GDSC screen)).
Procedure: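 Human cancer cell lines in 384-well plates, medium with 10% serum, drug for 72 h over a 256-fold dose range (nine 2-fold or five 4-fold steps up to the top dose). Adherent lines were fixed and stained with the nucleic acid dye Syto60, suspension lines read with resazurin; signal relative to control wells, capped at 0 and 100%. One two-parameter sigmoid per drug and line, fitted in a mixed model over all curves with the slope shared within a line.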

Point of comparison: Hs683 (glioma, adherent, top dose 4 µM), AUC 0.796. Against it:
- HLE (liver, adherent, top dose 2 µM) — higher, 0.971
- HN (head and neck, adherent, top dose 4 µM) — higher, 0.898
- HO-1-u-1 (head and neck, adherent, top dose 4 µM) — higher, 0.844
- HOP-62 (lung adenocarcinoma, adherent, top dose 4 µM) — higher, 0.926
- HOS (osteosarcoma, adherent, top dose 4 µM) — higher, 0.917
- HSC-2 (head and neck, adherent, top dose 4 µM) — higher, 0.962
- HSC-39 (stomach, suspension, top dose 4 µM) — lower, 0.794
- HT55 (large intestine, adherent, top dose 4 µM) — higher, 0.949
- HT (B-cell lymphoma, suspension, top dose 4 µM) — lower, 0.681
- HT-3 (cervix, adherent, top dose 4 µM) — higher, 0.949
- HT-29 (large intestine, adherent, top dose 4 µM) — higher, 0.944
- HT-115 (large intestine, adherent, top dose 4 µM) — higher, 0.954
- HT-144 (melanoma, adherent, top dose 4 µM) — higher, 0.925
- HT-1080 (fibrosarcoma, adherent, top dose 4 µM) — higher, 0.95
- HT-1197 (bladder, adherent, top dose 4 µM) — higher, 0.935
- HT-1376 (bladder, adherent, top dose 4 µM) — higher, 0.95
- HUTU-80 (digestive system, adherent, top dose 4 µM) — higher, 0.867
- HeLa (cervix, adherent, top dose 4 µM) — higher, 0.951
- Hep 3B2_1-7 (liver, adherent, top dose 4 µM) — lower, 0.787
- Hey (ovary, adherent, top dose 4 µM) — lower, 0.792
- Hs633T (fibrosarcoma, adherent, top dose 4 µM) — higher, 0.869
- Hs746T (stomach, adherent, top dose 4 µM) — higher, 0.849
- Hs766T (pancreas, adherent, top dose 4 µM) — higher, 0.819
- Hs939-T (melanoma, adherent, top dose 4 µM) — lower, 0.756
- Hs-578-T (breast, adherent, top dose 4 µM) — lower, 0.766
- HuCCT1 (biliary tract, adherent, top dose 4 µM) — higher, 0.98
- HuH-7 (liver, adherent, top dose 4 µM) — lower, 0.766
- HuO9 (osteosarcoma, adherent, top dose 4 µM) — lower, 0.665
- HuO-3N1 (osteosarcoma, adherent, top dose 4 µM) — higher, 0.922
- HuP-T3 (pancreas, adherent, top dose 4 µM) — higher, 0.903
- HuP-T4 (pancreas, adherent, top dose 4 µM) — higher, 0.877
- IA-LM (large cell lung carcinoma, adherent, top dose 4 µM) — higher, 0.95
- IGR-1 (melanoma, adherent, top dose 4 µM) — higher, 0.99
- IGR-37 (melanoma, adherent, top dose 4 µM) — lower, 0.753
- IGROV-1 (ovary, adherent, top dose 4 µM) — lower, 0.609
- IHH-4 (thyroid, semi-adherent, top dose 4 µM) — higher, 0.814
- IM-9 (myeloma, suspension, top dose 4 µM) — higher, 0.992
- IMR-5 (neuroblastoma, adherent, top dose 4 µM) — higher, 0.992
- IPC-298 (melanoma, adherent, top dose 4 µM) — higher, 0.975
- IST-MEL1 (melanoma, adherent, top dose 4 µM) — higher, 0.969
- IST-SL1 (small cell lung carcinoma, semi-adherent, top dose 4 µM) — higher, 0.986
- IST-SL2 (small cell lung carcinoma, suspension, top dose 4 µM) — lower, 0.728
- JAR (urogenital system, adherent, top dose 4 µM) — higher, 0.967
- JEG-3 (urogenital system, adherent, top dose 4 µM) — higher, 0.93
- JEKO-1 (B-cell lymphoma, suspension, top dose 4 µM) — lower, 0.733
- JHH-1 (liver, adherent, top dose 4 µM) — lower, 0.652
- JHH-2 (liver, adherent, top dose 4 µM) — lower, 0.764
- JHH-4 (liver, adherent, top dose 4 µM) — higher, 0.877
- JHH-7 (liver, adherent, top dose 4 µM) — higher, 0.964
- JHOS-2 (ovary, adherent, top dose 4 µM) — higher, 0.807
- JHOS-3 (ovary, adherent, top dose 4 µM) — higher, 0.889
- JHOS-4 (ovary, adherent, top dose 4 µM) — lower, 0.773
- JHU-011 (head and neck, adherent, top dose 4 µM) — lower, 0.716
- JHU-022 (head and neck, adherent, top dose 4 µM) — higher, 0.877
- JHU-029 (head and neck, adherent, top dose 4 µM) — lower, 0.767
- JIMT-1 (breast, adherent, top dose 4 µM) — lower, 0.736
- JJN-3 (haematopoietic neoplasm, suspension, top dose 4 µM) — higher, 0.952
- JM1 (B-cell lymphoma, suspension, top dose 4 µM) — higher, 0.904
- JSC-1 (B-cell lymphoma, suspension, top dose 4 µM) — higher, 0.96
- JURL-MK1 (chronic myeloid leukaemia, suspension, top dose 4 µM) — higher, 0.907
- JVM-2 (lymphoid neoplasm, suspension, top dose 4 µM) — lower, 0.763
- JVM-3 (lymphoid neoplasm, suspension, top dose 4 µM) — higher, 0.903
- JiyoyeP-2003 (Burkitt lymphoma, suspension, top dose 4 µM) — higher, 0.983
- K2 (melanoma, adherent, top dose 4 µM) — higher, 0.913
- KARPAS-45 (lymphoblastic leukaemia, suspension, top dose 4 µM) — lower, 0.626
- KARPAS-231 (B-cell leukaemia, suspension, top dose 4 µM) — lower, 0.524
- KARPAS-299 (anaplastic large cell lymphoma, suspension, top dose 4 µM) — higher, 0.904
- KARPAS-422 (B-cell lymphoma, suspension, top dose 4 µM) — lower, 0.629
- KARPAS-620 (haematopoietic neoplasm, suspension, top dose 4 µM) — lower, 0.521
- KARPAS-1106P (B-cell lymphoma, suspension, top dose 4 µM) — higher, 0.873
- KATOIII (stomach, semi-adherent, top dose 4 µM) — higher, 0.904
- KCL-22 (chronic myeloid leukaemia, suspension, top dose 4 µM) — higher, 0.941
- KE-37 (lymphoblastic leukaemia, suspension, top dose 4 µM) — lower, 0.456
- KELLY (neuroblastoma, adherent, top dose 4 µM) — higher, 0.968
- KG-1 (acute myeloid leukaemia, suspension, top dose 4 µM) — higher, 0.99
- KGN (ovary, adherent, top dose 4 µM) — higher, 0.936
- KINGS-1 (glioma, adherent, top dose 4 µM) — higher, 0.888
- KLE (endometrium, adherent, top dose 4 µM) — higher, 0.803
- KM12 (large intestine, adherent, top dose 4 µM) — higher, 0.951
- KM-H2 (Hodgkin lymphoma, suspension, top dose 4 µM) — higher, 0.993
- KMH-2 (thyroid, adherent, top dose 4 µM) — higher, 0.969
- KMOE-2 (acute myeloid leukaemia, suspension, top dose 4 µM) — lower, 0.777

Point of comparison: “JIMT-1 (breast, adherent, top dose 4 µM)”, IC50 1260 nM. Against it:
- HLE (liver, adherent, top dose 2 µM) — higher, > 2000 nM
- HN (head and neck, adherent, top dose 4 µM) — higher, > 4000 nM
- HO-1-u-1 (head and neck, adherent, top dose 4 µM) — 2.1-fold higher, 2700 nM
- HOP-62 (lung adenocarcinoma, adherent, top dose 4 µM) — higher, > 4000 nM
- HOS (osteosarcoma, adherent, top dose 4 µM) — higher, > 4000 nM
- HSC-2 (head and neck, adherent, top dose 4 µM) — higher, > 4000 nM
- HSC-39 (stomach, suspension, top dose 4 µM) — within 1.5-fold, 1570 nM
- HT55 (large intestine, adherent, top dose 4 µM) — higher, > 4000 nM
- HT (B-cell lymphoma, suspension, top dose 4 µM) — 1.7-fold lower, 762 nM
- HT-3 (cervix, adherent, top dose 4 µM) — higher, > 4000 nM
- HT-29 (large intestine, adherent, top dose 4 µM) — higher, > 4000 nM
- HT-115 (large intestine, adherent, top dose 4 µM) — higher, > 4000 nM
- HT-144 (melanoma, adherent, top dose 4 µM) — higher, > 4000 nM
- HT-1080 (fibrosarcoma, adherent, top dose 4 µM) — higher, > 4000 nM
- HT-1197 (bladder, adherent, top dose 4 µM) — higher, > 4000 nM
- HT-1376 (bladder, adherent, top dose 4 µM) — higher, > 4000 nM
- HUTU-80 (digestive system, adherent, top dose 4 µM) — 2.1-fold higher, 2610 nM
- HeLa (cervix, adherent, top dose 4 µM) — higher, > 4000 nM
- Hep 3B2_1-7 (liver, adherent, top dose 4 µM) — within 1.5-fold, 1730 nM
- Hey (ovary, adherent, top dose 4 µM) — within 1.5-fold, 1700 nM
- Hs633T (fibrosarcoma, adherent, top dose 4 µM) — 2.1-fold higher, 2590 nM
- Hs683 (glioma, adherent, top dose 4 µM) — 1.5-fold higher, 1900 nM
- Hs746T (stomach, adherent, top dose 4 µM) — higher, > 4000 nM
- Hs766T (pancreas, adherent, top dose 4 µM) — 2.6-fold higher, 3300 nM
- Hs939-T (melanoma, adherent, top dose 4 µM) — within 1.5-fold, 1490 nM
- Hs-578-T (breast, adherent, top dose 4 µM) — within 1.5-fold, 1570 nM
- HuCCT1 (biliary tract, adherent, top dose 4 µM) — higher, > 4000 nM
- HuH-7 (liver, adherent, top dose 4 µM) — within 1.5-fold, 1470 nM
- HuO9 (osteosarcoma, adherent, top dose 4 µM) — 1.7-fold lower, 759 nM
- HuO-3N1 (osteosarcoma, adherent, top dose 4 µM) — higher, > 4000 nM
- HuP-T3 (pancreas, adherent, top dose 4 µM) — higher, > 4000 nM
- HuP-T4 (pancreas, adherent, top dose 4 µM) — higher, > 4000 nM
- IA-LM (large cell lung carcinoma, adherent, top dose 4 µM) — higher, > 4000 nM
- IGR-1 (melanoma, adherent, top dose 4 µM) — higher, > 4000 nM
- IGR-37 (melanoma, adherent, top dose 4 µM) — within 1.5-fold, 1230 nM
- IGROV-1 (ovary, adherent, top dose 4 µM) — 2.2-fold lower, 574 nM
- IHH-4 (thyroid, semi-adherent, top dose 4 µM) — within 1.5-fold, 1660 nM
- IM-9 (myeloma, suspension, top dose 4 µM) — higher, > 4000 nM
- IMR-5 (neuroblastoma, adherent, top dose 4 µM) — higher, > 4000 nM
- IPC-298 (melanoma, adherent, top dose 4 µM) — higher, > 4000 nM
- IST-MEL1 (melanoma, adherent, top dose 4 µM) — higher, > 4000 nM
- IST-SL1 (small cell lung carcinoma, semi-adherent, top dose 4 µM) — higher, > 4000 nM
- IST-SL2 (small cell lung carcinoma, suspension, top dose 4 µM) — within 1.5-fold, 1110 nM
- JAR (urogenital system, adherent, top dose 4 µM) — higher, > 4000 nM
- JEG-3 (urogenital system, adherent, top dose 4 µM) — higher, > 4000 nM
- JEKO-1 (B-cell lymphoma, suspension, top dose 4 µM) — within 1.5-fold, 1110 nM
- JHH-1 (liver, adherent, top dose 4 µM) — 1.8-fold lower, 685 nM
- JHH-2 (liver, adherent, top dose 4 µM) — within 1.5-fold, 1560 nM
- JHH-4 (liver, adherent, top dose 4 µM) — 3.2-fold higher, 3990 nM
- JHH-7 (liver, adherent, top dose 4 µM) — higher, > 4000 nM
- JHOS-2 (ovary, adherent, top dose 4 µM) — 2-fold higher, 2470 nM
- JHOS-3 (ovary, adherent, top dose 4 µM) — higher, > 4000 nM
- JHOS-4 (ovary, adherent, top dose 4 µM) — 1.8-fold higher, 2300 nM
- JHU-011 (head and neck, adherent, top dose 4 µM) — within 1.5-fold, 1010 nM
- JHU-022 (head and neck, adherent, top dose 4 µM) — higher, > 4000 nM
- JHU-029 (head and neck, adherent, top dose 4 µM) — within 1.5-fold, 1820 nM
- JJN-3 (haematopoietic neoplasm, suspension, top dose 4 µM) — higher, > 4000 nM
- JM1 (B-cell lymphoma, suspension, top dose 4 µM) — higher, > 4000 nM
- JSC-1 (B-cell lymphoma, suspension, top dose 4 µM) — higher, > 4000 nM
- JURL-MK1 (chronic myeloid leukaemia, suspension, top dose 4 µM) — higher, > 4000 nM
- JVM-2 (lymphoid neoplasm, suspension, top dose 4 µM) — within 1.5-fold, 1760 nM
- JVM-3 (lymphoid neoplasm, suspension, top dose 4 µM) — higher, > 4000 nM
- JiyoyeP-2003 (Burkitt lymphoma, suspension, top dose 4 µM) — higher, > 4000 nM
- K2 (melanoma, adherent, top dose 4 µM) — higher, > 4000 nM
- KARPAS-45 (lymphoblastic leukaemia, suspension, top dose 4 µM) — 2.4-fold lower, 522 nM
- KARPAS-231 (B-cell leukaemia, suspension, top dose 4 µM) — 4.4-fold lower, 287 nM
- KARPAS-299 (anaplastic large cell lymphoma, suspension, top dose 4 µM) — 3-fold higher, 3740 nM
- KARPAS-422 (B-cell lymphoma, suspension, top dose 4 µM) — 2.2-fold lower, 564 nM
- KARPAS-620 (haematopoietic neoplasm, suspension, top dose 4 µM) — 4.5-fold lower, 282 nM
- KARPAS-1106P (B-cell lymphoma, suspension, top dose 4 µM) — 2.2-fold higher, 2740 nM
- KATOIII (stomach, semi-adherent, top dose 4 µM) — higher, > 4000 nM
- KCL-22 (chronic myeloid leukaemia, suspension, top dose 4 µM) — higher, > 4000 nM
- KE-37 (lymphoblastic leukaemia, suspension, top dose 4 µM) — 6.5-fold lower, 195 nM
- KELLY (neuroblastoma, adherent, top dose 4 µM) — higher, > 4000 nM
- KG-1 (acute myeloid leukaemia, suspension, top dose 4 µM) — higher, > 4000 nM
- KGN (ovary, adherent, top dose 4 µM) — higher, > 4000 nM
- KINGS-1 (glioma, adherent, top dose 4 µM) — higher, > 4000 nM
- KLE (endometrium, adherent, top dose 4 µM) — 2.8-fold higher, 3510 nM
- KM12 (large intestine, adherent, top dose 4 µM) — higher, > 4000 nM
- KM-H2 (Hodgkin lymphoma, suspension, top dose 4 µM) — higher, > 4000 nM
- KMH-2 (thyroid, adherent, top dose 4 µM) — higher, > 4000 nM
- KMOE-2 (acute myeloid leukaemia, suspension, top dose 4 µM) — within 1.5-fold, 1440 nM
